Source: PubChem BioAssay AID651820 (National Center for Advancing Translational Sciences (NCATS), 2012)
Among all 340,000 compounds or so, about 12,000 (3.5%) were called active. The shares of active, inactive and inconclusive entries below differ from those in the screen. The call rests on the fitted dose curve; in most records, active means well fitted inhibition curve with a large enough effect; inconclusive means small, poorly fitted or top-dose-only effect, or another doubt; inactive means no such curve, though single readings can be large or run the other way. No potency is given beside an inconclusive call; the fits are too rough.

Experiment: qHTS Assay for Inhibitors of Hepatitis C Virus (HCV)
Conditions: Huh7.5.1 HCVcc-Cre (HCVcc is cell-culture hepatitis C virus) infection, luciferase reporter, 44 h; series mostly up to 41.8 µM
Procedure, shortened: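 After 44 h co-culture of compound, cells and HCVcc-Cre (~0.5 moi), substrate is added for 15 min at room temperature and luciferase measured over 15 sec. Cells were seeded at 1,000/well and pre-cultured 4 h.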
Potency means the concentration at half of the fitted maximal effect; tags describe the fitted curve by direction and shape.

Row | Structure (SMILES) | Potency
1 | CC1CN=C(N(C(=O)Nc2ccccc2)C(C)C)S1 (stereo not given) | inconclusive [inhibitor, single point]
2 | CN1CCN(c2ccc(C(F)(F)F)cc2NC(=O)Nc2ccccc2)CC1 | inconclusive [inhibitor, single point]
3 | O=C(NCC(c1ccco1)N1CCCC1)c1cn(-c2ccccc2)nc1-c1ccc(F)cc1 (stereo not given) | inconclusive [inhibitor, single point]
4 | CCC(c1nnnn1C1CCCCC1)N1CCN(C2CCCC2)CC1 (stereo not given) | inactive
5 | CC(Oc1cccc(Br)c1)C(=O)NNC(=O)CCNC(=O)c1ccccc1Cl (stereo not given) | inactive
6 | CC(=O)Nc1ccc(S(=O)(=O)NCCC(=O)N2CCN(c3ccccc3Cl)CC2)cc1 | inconclusive [inhibitor, single point]
7 | Cc1ccc(-c2nc3ccccc3s2)cc1NC(=O)c1ccc2c(c1)OCO2 | inconclusive [inhibitor, single point]
8 | COc1ccc(-c2nnn(CC(=O)N(Cc3ccccc3Cl)C(C(=O)NCC3CCCO3)c3ccco3)n2)cc1 (stereo not given) | inactive
9 | O=C(CN1C(=O)NC2(CCCCCCC2)C1=O)Nc1ccc(Br)cc1Br | inconclusive [inhibitor, partial curve]
10 | CCOC(=O)C1(CC2CC2)CCN(C(=O)c2cc(C3CC3)nc3ccccc23)CC1 | inconclusive [inhibitor, single point]
11 | Cc1ccc(Sc2nc(-c3ccccc3)nnc2C(F)(F)F)cc1 | inconclusive [inhibitor, single point]
12 | Cc1nc(C(=O)NNC(=O)c2ccc(Cl)cc2)cs1 | inconclusive [inhibitor, single point]
13 | Nc1ccc(S(=O)(=O)O)cn1 | inconclusive [inhibitor, full curve]
14 | N#Cc1sc(=O)[nH]c1Cl | inactive
15 | Cc1cccc(N2C(=O)C(Oc3ccc(Cl)cc3Cl)C2C(=O)O)c1C (stereo not given) | inactive
16 | NC(=O)CC(NC(=O)c1ccccc1)c1ccc(NCc2ccc(F)c(F)c2)c([N+](=O)[O-])c1 (stereo not given) | inactive
17 | O=C(O)c1cc(S(=O)(=O)N2CCCCCC2)ccc1Cl | inactive
18 | COc1cc(C(=O)Nc2cccc3cccnc23)cc(OC)c1OC | inconclusive [inhibitor, single point]
19 | CCOC(=O)CSc1nc2sc3c(c2c(=O)n1-c1ccc(OCC)cc1)CCN(C)C3 | inconclusive [inhibitor, single point]
20 | COc1cc(-c2ccccc2)nc2ccccc12 | inconclusive [inhibitor, full curve]
